Reference: the supplement of paper PMC6660600, “Odorant Inhibition in Mosquito Olfaction” (iScience, 2019)
Some of the results follow. Many values rest on one well or one pass, so single values are uncertain.

Each compound was assayed on CquiOR32-CquiOrco (assay: current response class (signed ordinal: positive = inward/excitatory, negative = outward/inhibitory) (ordinal score (-3..3)); higher = stronger inward (excitatory) current). Settings: 1 mM; holding potential (mV): -80.

Row | SMILES | current response class
1 | CCC(C)OC(=O)N1CCCCC1CCO (stereo unspecified) [picaridin] | active: -1
2 | CCCC(C)O (stereo unspecified) [2-pentanol] | inactive: 0
3 | CC(CC=O)CCCC(C)(C)O (stereo unspecified) [7-hydroxcitronellal] | inactive: 0
4 | CCCCCCCCCOC(C)=O [nonyl acetate] | inactive: 0
5 | CCCCCCCCCCCCCC(=O)OC(C)C [isopropyl myristate] | inactive: 0
6 | CCCCCCCCCCC(=O)OCC [ethyl undecanoate] | inactive: 0
7 | CCCCCCCCCCCC(C)=O [2-tridecanone] | inactive: 0
8 | CC(=O)/C=C/C1=C(C)CCCC1(C)C [β-ionone] | inactive: 0
9 | CC(C)=CCCC(C)CCO (stereo unspecified) [citronellol] | inactive: 0
10 | CCC(=O)OC [methyl propionate] | inactive: 0
11 | CCCc1ccc(O)c(OC)c1 [2-methoxy-4-propylphenol] | inactive: 0
12 | CCC(=O)OCCc1ccccc1 [phenethyl propionate] | inactive: 0
13 | CCCC/C=C/C=O [(E)-2-heptenal] | inactive: 0
14 | CC(C)=CCC/C(C)=C/COC(=O)CC(C)C [geranyl isovalerate] | active: -1
15 | CC(=O)CCC(C)C [5-methyl-2-hexanone] | inactive: 0
16 | CC/C=C\CCO [(Z)-3-hexen-1-ol] | active: 1
17 | C=CC(CCCCC)OC(C)=O (stereo unspecified) [1-octen-3-yl acetate] | inactive: 0
18 | CC(C)(C)c1ccc(O)c(C(C)(C)C)c1 [2,4-di-tert-butylphenol] | inactive: 0

Row | SMILES | current response class
19 | Cc1ccc(C(C)C)c(O)c1 [thymol] | active: -1
20 | Cc1ccc(C)c(O)c1 [2,5-dimethylphenol] | active: 1
21 | CCC(C)NC(=O)Cc1ccccc1 (stereo unspecified) [N-sec-butyl-2-phenyl-acetamide] | active: -1
22 | CCC/C=C/C(=O)O [(E)-2-hexenoic acid] | inactive: 0
23 | CCCCCCOC(C)=O [hexyl acetate] | inactive: 0
24 | C=CC(O)CCCC (stereo unspecified) [1-hepten-3-ol] | active: 1
25 | CCCCO [1-butanol] | inactive: 0
26 | CC12CCC(CC1)C(C)(C)O2 [eucalyptol] | active: -3
27 | Oc1ncnc2[nH]ncc12 [allopurinol] | inactive: 0
28 | CCN(CC)C(=O)c1cccc(C)c1 [N,N-Diethyl-m-toluamide (DEET)] | active: -2
29 | CCCCCCCCCCCC=O [1-dodecanal] | inactive: 0
30 | CC(=O)OCC(C)C [isobutyl acetate] | inactive: 0
31 | CCCCCCC(C)=O [2-octanone] | inactive: 0
32 | CCCCCCCCO [1-octanol] | inactive: 0
33 | CCCCC1CCC(=O)O1 (stereo unspecified) [γ-octalactone] | active: 2
34 | CCC(=O)Oc1ccccc1 [phenyl propanoate] | inactive: 0
35 | CC1=CC=C(C(C)C)CC1 [α-terpinene] | active: -1
36 | CC(=O)c1cccs1 [2-acetylthiophene] | active: 1
